# From PubChem BioAssay AID686971 (National Center for Advancing Translational Sciences (NCATS), 2013)
# Out of some 360,000 compounds screened, about 7,500 (2.1%) were called active. The shares of active, inactive and inconclusive entries below differ from those in the screen. Calls come from the whole dose curve; as a rule, active = well fitted cell-killing curve with a large enough effect; inconclusive = small, poorly fitted or top-dose-only effect, or effect the other way, or another doubt; inactive = no such curve, though single readings can be large or run the other way. No potency is given beside an inconclusive call; the fits are too rough.
# Assay: qHTS for induction of synthetic lethality in tumor cells producing 2HG: qHTS for the HT-1080-IDH1KD cell line;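 for activity, negative = toxicity: 0% = DMSO wells and -100% = cell-free medium wells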
# Conditions: HT-1080 IDH1 knockdown viability, ATP luminescence, 48 h; activity, negative = toxicity: at 46.1 µM (top of the series) unless noted
# Outline: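 IDH1KD HT-1080 cells, 750/well, RPMI + 5% FBS; compound pinned after 2 h settling; 48 h, 37 °C; CellTiter-Glo luminescence; % activity normalised to DMSO and no-cell wells; curves fitted, classed by r2 and efficacy.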
# Potency is the fitted concentration of half-maximal effect; tags give direction and shape of the fitted curve.
SMILES,Potency,"activity, negative = toxicity"
CCCc1c(-c2ccccc2F)ncn1Cc1ccccc1OC,"inconclusive [cytotoxic, partial curve]",–
O=C(COC(=O)/C=C/c1ccc(Cl)cc1)Nc1cccc(S(=O)(=O)NC2=NCCCCC2)c1,–,inactive: 1.73%
COc1ccc(OC)c(Nc2cc(C)nc3ccccc23)c1,"inconclusive [cytotoxic, single point]",–
CCN(CC(=O)NCc1ccc(Cl)cc1)C(=O)CSCC(=O)Nc1ccc(C)cc1,–,inactive: -8.98%
O=C(CSc1n[nH]c(-c2cccs2)n1)N1CCN(S(=O)(=O)c2ccc3ccccc3c2)CC1,"inconclusive [cytotoxic, single point]",–
CCCCCC(=O)N1CCN(S(=O)(=O)c2ccc3c(c2)OCCO3)CC1,–,inactive: -19.4%
CCOc1ccc2[nH]c3c(N4CCN(c5ccccn5)CC4)ncnc3c2c1,"inconclusive [cytotoxic, single point]",–
CCN1C(=O)[C@@H]2[C@H](C1=O)[C@@H]1C(=O)Nc3ccccc3C(=O)N1[C@@H]2c1ccc(Br)cc1,–,inactive: 6.64%
CC(C(=O)NC1CCCC1)N(C(=O)c1ccc(-c2ccccc2)[nH]1)c1ccccc1F (stereo not given),"inconclusive [cytotoxic, single point]",–
O=C(NC(c1ccc(Cl)cc1)c1cc(Cl)c2cccnc2c1O)c1cccnc1 (stereo not given),active: 3.26 µM,–
CC1Nc2ccccc2C(=O)N1NC(=O)c1ccc(Br)cc1 (stereo not given),–,inactive: 3.04%
COc1ccc(S(=O)(=O)Nc2ccc(-c3ccc4nncn4n3)cc2)c(OC)c1,"inconclusive [cytotoxic, partial curve]",–
N#CCCSc1ncnc2c1oc1ccccc12,"inconclusive [cytotoxic, single point]",–
CCC(=O)Nc1cccc(-c2cn3ccccc3n2)c1,–,inconclusive: 33.5%
Cc1ccsc1/C=C1/SC(N2CC(C)OC(C)C2)=NC1=O (stereo not given),–,inactive: 8.46%
CCc1ccccc1NC(=O)Cn1nnc(C(=O)NCc2cccs2)c1N,active: 4.11 µM,–
Cc1ccccc1-n1ncc2c(SCC(=O)N3c4ccccc4CC3C)ncnc21 (stereo not given),"inconclusive [cytotoxic, partial curve, poor fit]",–
Cn1nc(C(C)(C)C)cc1C(=O)N1CCCCC1c1cc(C(=O)Nc2ccc(F)c(Cl)c2)no1 (stereo not given),"inconclusive [cytotoxic, single point]",–
O=C(CCN1CCCCC1)c1ccc2c(c1)OCCO2,active: 5.62 µM,–
CC(=O)n1cc(/C=N/NC(=O)c2ccc(Cl)cc2)c2ccccc21,–,inactive: 15.8%
COC(=O)[C@@]12C[C@@H](CC(=O)NCc3cccc(C(F)(F)F)c3)C(=O)N(Cc3cccc4ccccc34)C1=CCC(C)(C)C2,"inconclusive [cytotoxic, single point]",–
O=[N+]([O-])c1cc(Cl)cc(/C=N\Nc2ccccn2)c1O,"inconclusive [cytotoxic, full curve]",–
CCC(/C=C1\Sc2ccc(OC)cc2N1CCO)=C\c1sc2ccc(OC)cc2[n+]1CCO,"inconclusive [cytotoxic, single point]",–

SMILES,Potency,"activity, negative = toxicity"
Cc1cccc(CC2S/C(=N/c3ccccn3)NC2=O)c1 (stereo not given),"inconclusive [cytotoxic, single point]",–
O=C(NC1CCCC1)C(c1ccccc1)n1c(Cc2cc(F)cc(F)c2)nc2ccccc21 (stereo not given),"inconclusive [cytotoxic, single point]",–
c1ccc(-n2c(SCc3nc(-c4cccs4)no3)nnc2-c2ccco2)cc1,–,inactive: 13.1%
COc1ccc(-c2cc(C(=O)Nc3ccccc3O)c3ccccc3n2)cc1,"inconclusive [cytotoxic, single point]",–
COc1cc(-c2nc(C(=O)NC3CCN(Cc4ccccc4)CC3)cc3c2[nH]c2ccccc23)cc(OC)c1OC,"inconclusive [cytotoxic, single point]",–
Cn1ncc2c(Nc3cccc(Cl)c3)nc(Nc3cccc(Cl)c3)nc21,active: 20.6 µM,–
CCOc1ccc(NS(=O)(=O)c2cc(NC(=O)CCC(=O)c3cccs3)ccc2Cl)cc1,–,inconclusive: -31.3% [cytotoxic]
CCN(CCCn1c(=S)[nH]c2ccc(N3CCOCC3)cc2c1=O)c1ccccc1,"inconclusive [cytotoxic, partial curve]",–
CCCCCCCCCCCCCCCC(O)C[N+](C)(C)CCO (stereo not given),–,inactive: -1.97%
Cc1c(C)n(CC(O)CSc2ccccc2)c2ccccc12 (stereo not given),"inconclusive [cytotoxic, single point]",–
COC(=O)c1ccc(-n2c(C)ccc2-c2ccccc2)cc1,"inconclusive [cytotoxic, single point]",–
O=C(N/N=C/c1ccc(O)c([N+](=O)[O-])c1)C(O)(c1ccccc1)c1ccccc1,"inconclusive [cytotoxic, single point]",–
COc1ccc2cc(CNCCOCCOCCNCc3ccc4cc(OC)ccc4c3)ccc2c1,active: 16.4 µM,–
CSc1ccccc1C(=O)N1CCc2ccc(NC(=O)c3ccccn3)cc2C1,"inconclusive [cytotoxic, partial curve]",–
O=C(N/N=C/c1cccnc1)c1ccc(NC(=O)c2ccccc2Cl)cc1,–,inactive: -29.4%
CS(=O)(=O)N(CC(=O)N1CCc2ccccc2C1)c1ccc(Cl)cc1F,–,inactive: 4.38%
CCOc1ccccc1N=c1oc2cc(O)ccc2cc1C(=O)NCC1CCCO1 (stereo not given),"inconclusive [cytotoxic, single point]",–
CC1=NN(c2ccc(Cl)cc2)C(=O)C1C(c1ccccc1O)c1c(C)[nH]n(-c2ccc(Cl)cc2)c1=O (stereo not given),"inconclusive [cytotoxic, single point]",–
CC(C)/C=C/CN1CCCC(N2CCN(c3cccc(Cl)c3)CC2)C1 (stereo not given),–,inactive: 0.0167%
O=C(O)Cn1c(C(F)(F)F)nc2ccccc21,–,inactive: 10.6%
Cc1ccc(NNC(=O)c2ccno2)cc1Cl,active: 3.66 µM,–
COc1ccc(NC(=O)Nc2ccc3c(c2)C(=O)N([C@H](C)CO)C[C@H](C)[C@@H](CN(C)C(=O)Nc2c(C)noc2C)O3)cc1,–,inactive: 9.78%
